Laboratory results published in PubChem BioAssay AID504832 (National Center for Advancing Translational Sciences (NCATS), 2011).
Among all 310,000 compounds or so, about 18,000 (5.8%) were called active. Inconclusive results, whose numbers are uncertain, are shown with a selection of clear calls. Calls follow the shape of the dose curve; as a rule, active = well fitted inhibition curve with a large enough effect; inconclusive = small, poorly fitted or top-dose-only effect, or another doubt; inactive = no such curve, though single readings can be large or run the other way. Potencies of inconclusive entries are left out as doubtful fits.

Test: Primary qHTS for delayed death inhibitors of the malarial parasite plastid, 48 hour incubation
Conditions: P. falciparum luciferase growth in erythrocytes; series mostly up to 28.7 µM; activity change, negative = inhibition: at the top concentration
How it was run: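 Erythrocytes infected with P. falciparum carrying an integrated firefly luciferase reporter (2% hematocrit, 0.1% parasitemia final) were exposed to compounds in RPMI 1640 with 0.5% Albumax at 37 C, 5% CO2. Growth inhibition was scored as reduced luminescence.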
% is scaled to controls: 0 for no effect and ±100 for the full control effect; potency is read from the fitted curve at half-maximal effect; tags tell the direction and shape of the fitted curve.

SMILES	Potency	activity change, negative = inhibition
O=C(Nc1cccc(-n2cnnn2)c1)c1cc(Cl)nc(Cl)c1	active: 9.28 µM	–
CN(C)/C=N/c1nc2nccc(-c3ccccn3)n2n1	inconclusive [inhibitor, single point]	–
O=C(OC(C(=O)Nc1cccc(C(F)(F)F)c1)c1ccccc1)C1CCCCC1 (stereo unspecified)	inconclusive [inhibitor, single point]	–
CCn1cc(CNC(=O)NC2CCCCC2)c(C)n1	–	inactive: 55.3%
O=C(OCC(=O)N1CCc2ccccc21)c1c2c(nc3ccccc13)CCCCC2	active: 4.65 µM	–
CCN(Cc1ccncc1)Cc1ccc(Br)cc1	inconclusive [inhibitor, partial curve]	–
c1ccc(CN2CCC(Nc3nc(-c4cccnc4)nc4ccccc34)CC2)cc1	inconclusive [inhibitor, single point]	–
CCN(c1ccccc1)S(=O)(=O)c1cccc(C(=O)N2CCN(S(=O)(=O)c3ccccc3)CC2)c1	inconclusive [inhibitor, partial curve]	–
CCC(=O)N1CCN=C1SCc1ccc(Cl)cc1	inconclusive [inhibitor, single point]	–
O=C(Nc1ccc(Cl)cc1)N(Cc1cccs1)Cc1cccs1	inconclusive [inhibitor, single point]	–
CN(C)S(=O)(=O)c1ccc(N2CCCC2)c(C(=O)Nc2ccccc2)c1	–	inactive: -10.7%
O=C1CNC(=S)N1CCc1ccc(O)c(O)c1	inconclusive [inhibitor, single point]	–
O=C1S/C(=C\c2ccc(Cl)cc2)C(=O)N1CCn1cnnn1	–	inactive: 0%
CN(C1CCCCC1)C(CNS(=O)(=O)c1ccccc1)c1ccccc1 (stereo unspecified)	inconclusive [inhibitor, single point]	–
COc1cc(C(=O)N2CCN(C(=O)c3cc(-c4ccc(Br)cc4)n[nH]3)CC2)cc(OC)c1OC	inconclusive [inhibitor, partial curve]	–
O=C(c1ccc(Cl)c(S(=O)(=O)N2CCCC2)c1)N1CCN(c2ccccc2F)CC1	inconclusive [inhibitor, partial curve, poor fit]	–
O=C(COC(=O)/C=C/c1cccc(Cl)c1)NC1CCCC1	–	inactive: 13.4%
CCOC(=O)c1cc(-c2ccc(C)cc2)n(CCC(=O)NC(C)CC)c1C (stereo unspecified)	inconclusive [inhibitor, single point]	–
Cc1ccccc1NC1=NC2(CCCC2)N=C(N)N1	inconclusive [inhibitor, partial curve]	–
Cc1ccc(-c2cc(C(=O)Nc3ccncc3)c3ccccc3n2)cc1	active: 1.65 µM	–
Cc1c(C(=O)c2ccc(Cl)c(Cl)c2)cnc2cc3c(cc12)OCO3	inconclusive [inhibitor, partial curve, poor fit]	–
CCOC(=O)C(C)Sc1nc(-c2ccccc2)nc2ccccc12 (stereo unspecified)	inconclusive [inhibitor, single point]	–
Cc1ccc(NC(=O)CN2C(=O)S/C(=C/c3ccc(-c4cccc(C(=O)O)c4)o3)C2=O)cc1	–	inactive: 49.4%
CCN1CCN(c2nc(-c3cccs3)nc3ccccc23)CC1	inconclusive [inhibitor, single point]	–

SMILES	Potency	activity change, negative = inhibition
O=C(/C=C/Nc1cccc(O)c1)c1ccccc1	–	inactive: 328%
Cc1ccc(SCc2ccc(C(=O)Nc3ccccc3Br)cc2)cc1	inconclusive [inhibitor, single point]	–
CCN1CCN(Cc2ccc(NC(=O)c3ccc(C)c(NC(=O)c4c[nH]c5cc(C(F)(F)F)ccc5c4=O)c3)cc2C(F)(F)F)CC1	active: 0.586 µM	–
Cc1ccc(SCC(=O)O/N=C(\N)c2ccncc2)cc1	–	inactive: 8.4%
CO/N=C(/C(=O)N[C@@H]1C(=O)N2C(C(=O)O)=CCS[C@H]12)c1cnc(N)s1	–	inactive: 0%
O=C(N[C@@H](Cc1ccccc1)C(=O)N1CCC2(CC1)NCCc1[nH]cnc12)c1cccc(Br)c1	inconclusive [inhibitor, single point]	–
CC(C)Oc1ccc(S(=O)(=O)N2CCCCC2)cc1NC(=O)CN1C(=O)NC2(CCCC2)C1=O	active: 11.7 µM	–
COc1cc(C2C3=C(CCCC3=O)Nc3c2c(C)nn3-c2cccc(C)c2)cc(OC)c1O (stereo unspecified)	inconclusive [inhibitor, single point]	–
CC1CN(C(=O)c2cc3cc(F)ccc3[nH]2)CC(C)O1 (stereo unspecified)	inconclusive [inhibitor, single point]	–
COc1ccc(CCn2c(-c3ccco3)nc3nc4ccccc4nc32)cc1	inconclusive [inhibitor, single point]	–
CCOc1cc(-c2cc(-c3ccc(C)cc3)nc(N)c2C#N)ccc1O	inconclusive [inhibitor, partial curve, poor fit]	–
CCCOc1ccc(CNC(=S)N/N=C/c2ccc([N+](=O)[O-])cc2)cc1	inconclusive [inhibitor, single point]	–
Cc1cc2cc(C(c3nnnn3Cc3ccco3)N3CCc4ccccc4C3)c(=O)[nH]c2cc1C (stereo unspecified)	inconclusive [inhibitor, single point]	–
Cc1csc(NC(=O)c2cc3c(s2)-c2ccccc2OC3)n1	inconclusive [inhibitor, single point]	–
COc1ccc(-c2nc(N)n(C(=O)c3cccs3)n2)cc1	–	inactive: 7.83%
COc1cc(CNCCc2c[nH]c3ccccc23)ccc1OCc1ccccc1F	inconclusive [inhibitor, single point]	–
Cc1cc(S(=O)(=O)NC(C)C)ccc1OCC(=O)N1CCN(Cc2ccc3c(c2)OCO3)CC1	inconclusive [inhibitor, single point]	–
COc1ccc(-c2nn3c(-c4ccccc4)nnc3s2)cc1OC	inconclusive [inhibitor, single point]	–
CCn1c(=O)cc(SCC(=O)N2CCN(C(=O)c3ccco3)CC2)c2ccccc21	–	inactive: -14.4%
Cn1c(C(O)c2ccc(Cl)cc2)nc(Cl)c1Cl (stereo unspecified)	inconclusive [inhibitor, single point]	–
CCCCCC(=O)N1CCCCC1	inconclusive [inhibitor, full curve, poor fit]	–
Cn1cnc(S(=O)(=O)Nc2ccc(OC(F)(F)F)cc2)c1	inconclusive [inhibitor, single point]	–
COc1ccccc1C(C)Nc1ccc(S(=O)(=O)N2CCN(C)CC2)cc1[N+](=O)[O-] (stereo unspecified)	active: 11.7 µM	–
COc1ccc(OC)c2c1sc(=NC(=O)c1cccc(N3C(=O)CCC3=O)c1)n2C	inconclusive [inhibitor, single point]	–

SMILES	Potency	activity change, negative = inhibition
CCS(=O)(=O)N1CCC(C(=O)NCCC2=CCCCC2)CC1	inconclusive [inhibitor, full curve, poor fit]	–
CCOC(=O)C1CCCN(C(=O)c2cc3c(C)nc4ccccc4c3o2)C1 (stereo unspecified)	inconclusive [inhibitor, single point]	–
COc1ccccc1NC(=O)CN(c1ccccc1OC)S(=O)(=O)c1ccccc1	inconclusive [inhibitor, partial curve]	–
CCc1ccc(OCC(=O)NC(C)(C)C)cc1	–	inactive: 43.4%
CC(=O)c1ccc2c(c1)OCCOCCOc1ccccc1OCCOCCO2	–	inactive: 17.6%
Cc1ccc2nc(N(CCCN(C)C)C(=O)COc3ccc(Cl)cc3)sc2c1	inconclusive [inhibitor, single point]	–
CCc1ccc(C(=O)C(C)CN2CCCCC2)cc1 (stereo unspecified)	–	inactive: -6.38%
CN1CCN(CC(O)COc2ccc(C34CC5CC(CC(C5)C3)C4)cc2)CC1 (stereo unspecified)	inconclusive [inhibitor, partial curve]	–
CCc1ccc(N(CC)C(=O)c2ccc3c(Cl)c4c(nc3c2)CCC4)cc1	inconclusive [inhibitor, single point]	–
CN(C)/C=C(\C=N\OCc1ccc(Cl)cc1Cl)C(=O)Nc1ccc(Cl)c(Cl)c1	inconclusive [inhibitor, single point]	–
CC(=O)N1CCN(CC(=O)Nc2sccc2C#N)CC1	–	inactive: 6.13%
CCOC(=O)C1CCN(c2ncnc3c2[nH]c2cccc(OC)c23)CC1	inconclusive [inhibitor, single point]	–
CCNC(=O)c1ccc(C2SCC(=O)N2Cc2ccco2)cc1 (stereo unspecified)	inconclusive [inhibitor, partial curve]	–
Cc1ccccc1Sc1c(C#N)c(-c2ccccc2)nn1C	inconclusive [inhibitor, single point]	–
COc1ccccc1Oc1ccc(Oc2ccccc2OC)cc1	–	inactive: -22.8%
COc1ccc(NS(=O)(=O)c2cc(NC(=O)c3ccco3)ccc2N2CCCCC2)cc1	inconclusive [inhibitor, single point]	–
CCc1ccc(NC(=S)N2CCCC2)cc1	–	inactive: 111%
CCC(C)NC(=O)CN(c1ccc(OC)cc1)S(=O)(=O)c1ccccc1 (stereo unspecified)	–	inactive: 16.4%
Cc1ccc(NC2=CC(=O)CC(c3ccco3)C2)c(N)c1 (stereo unspecified)	inconclusive [inhibitor, single point]	–
O=C(CN1CCCCC1)NC(=O)NCc1ccccc1	–	inactive: 14.2%
COc1ccc(NC(=O)Nc2cccc(C(F)(F)F)c2)cn1	active: 13.1 µM	–
COC(=O)NC(=S)Nc1ccc(Oc2ccc(Cl)cc2)c(Cl)c1	inconclusive [inhibitor, partial curve]	–
CCn1ccnc1CN(C)Cc1cn[nH]c1-c1ccc(OC)c(F)c1	–	inactive: 17.3%
